The full ranking holds about 2,900 compounds; the median of “NF-kB SEAP reporter activity, fold change vs agonist alone” is about 0.99, and the highest 2% start at about 2.6. The list shows a part of the results.
Key:
[1] = system: RAW-Dual; experiment: NF-kB SEAP reporter activity, fold change vs agonist alone; cytotoxicity flag (confluency mask): cytotoxic (confluency <70% of control); higher = enhanced NF-kB activity
How it was run: (§1)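 RAW-Dual macrophages (50,000 cells/well in DMEM, 384-well plates) received 50 nL of library stock by pin tool, then a PRR agonist 1 h later, and were kept at 37 °C, 5% CO2. After 20 hours, supernatant was read for IRF by QuantiLuc luminescence and for NF-κB by QuantiBlue absorbance at 620 nm. Reporter activity is fold change over agonist-alone wells. Cytotoxic wells had IncuCyte confluency below 70% of agonist controls in both mask sets.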

[2] = system: RAW-Dual; experiment: NF-kB SEAP reporter activity, fold change vs agonist alone; higher = enhanced NF-kB activity
How it was run: as §1

[3] = system: RAW-Dual; experiment: NF-kB SEAP reporter activity, fold change vs agonist alone; cytotoxicity flag (confluency mask): not cytotoxic; higher = enhanced NF-kB activity
How it was run: as §1

[4] = agonist: ODN 1826 (TLR9) 0.5 ug/mL
[5] = agonist: Pam2CSK4 (TLR2/6) 0.1 ug/mL
[6] = agonist: Pam3CSK4 (TLR2/1) 0.1 ug/mL
[7] = library stock concentration (final ~1000-fold dilution): 10 mM, cytotoxicity flag (confluency mask): not cytotoxic, agonist: Imiquimod (TLR7) […]
[8] = library stock concentration (final ~1000-fold dilution): 10 mM, cytotoxicity flag (confluency mask): not cytotoxic, agonist: MPLA (TLR4) […]

Question: For `CCCCC(O)(Cn1cncn1)c1ccc(Cl)cc1Cl` (configuration not stated) (library stock concentration (final ~1000-fold dilution): 10 mM), which “NF-kB SEAP reporter activity” value ([1]; agonist: LPS (TLR4) 0.1 ug/mL) is on record?
Answer: The value was 0.866.

Question: What about the “NF-kB SEAP reporter activity” value [1, 4] of the same compound?
Answer: The value was 0.962.

Question: What about the “NF-kB SEAP reporter activity” value [1, 5] of the same compound?
Answer: Its value is 0.826.

Question: And the “NF-kB SEAP reporter activity” value [1, 6]?
Answer: The value was 0.963.

Question: `CCCCC(O)(Cn1cncn1)c1ccc(Cl)cc1Cl` (configuration not stated) was tested. Which “NF-kB SEAP reporter activity” value ([2]; library stock concentration (final ~1000-fold dilution): 10 mM, cytotoxicity flag (confluency mask): cytotoxic (confluency <70% of control), agonist: Imiquimod (TLR7) […]) did it give?
Answer: The value was 1.19.

Question: And the “NF-kB SEAP reporter activity” value ([2]; library stock concentration (final ~1000-fold dilution): 10 mM, cytotoxicity flag (confluency mask): cytotoxic (confluency <70% of control), agonist: MPLA (TLR4) […])?
Answer: The value was 1.1.

Question: What does the source list for `COC1=C[C@@H]2[C@@H]3Cc4ccc(OC)c(O)c4[C@]2(CCN3C)CC1=O`?
Answer: NF-kB SEAP reporter activity [2, 7]: 0.953; NF-kB SEAP reporter activity [2, 8]: 0.965

Question: For `COC1=C[C@@H]2[C@@H]3Cc4ccc(OC)c(O)c4[C@]2(CCN3C)CC1=O` (library stock concentration (final ~1000-fold dilution): 10 mM), which “NF-kB SEAP reporter activity” value ([3]; agonist: LPS (TLR4) 0.1 ug/mL) is on record?
Answer: The value was 1.21.

Question: What about the “NF-kB SEAP reporter activity” value [3, 4] of the same compound?
Answer: The value was 1.01.

Question: What about the “NF-kB SEAP reporter activity” value [3, 5] of the same compound?
Answer: Its value is 1.13.

Question: What about the “NF-kB SEAP reporter activity” value [3, 6] of the same compound?
Answer: Its value is 1.17.

Question: How did the “NF-kB SEAP reporter activity” value ([3]; agonist: LPS (TLR4) 0.1 ug/mL) turn out when `COc1ccc(N(C(=O)Oc2c(C)cccc2C)c2ccnc(Nc3ccc(N4CCN(C)CC4)cc3)n2)c(OC)c1` (library stock concentration (final ~1000-fold dilution): 10 mM) was run?
Answer: Its value is 1.48.

Question: What about the “NF-kB SEAP reporter activity” value [3, 4] of the same compound?
Answer: Its value is 1.79.

Question: And the “NF-kB SEAP reporter activity” value [3, 5]?
Answer: Its value is 1.13.

Question: What about the “NF-kB SEAP reporter activity” value [3, 6] of the same compound?
Answer: Its value is 1.85.

Question: Which results are given for `COc1ccc(N(C(=O)Oc2c(C)cccc2C)c2ccnc(Nc3ccc(N4CCN(C)CC4)cc3)n2)c(OC)c1`?
Answer: NF-kB SEAP reporter activity [2, 7]: 1.45; NF-kB SEAP reporter activity [2, 8]: 1.45

Question: `CC12NC(Cc3ccccc31)c1ccccc12.O=C(O)/C=C\C(=O)O` (configuration not stated) was tested. Which “NF-kB SEAP reporter activity” value [2, 7] did it give?
Answer: Its value is 1.16.

Question: And the “NF-kB SEAP reporter activity” value [2, 8]?
Answer: The value was 1.1.

Question: `CC12NC(Cc3ccccc31)c1ccccc12.O=C(O)/C=C\C(=O)O` (configuration not stated) (library stock concentration (final ~1000-fold dilution): 10 mM) was tested. Which “NF-kB SEAP reporter activity” value ([3]; agonist: LPS (TLR4) 0.1 ug/mL) did it give?
Answer: Its value is 1.25.

Question: And the “NF-kB SEAP reporter activity” value [3, 4]?
Answer: The value was 0.851.

Question: What about the “NF-kB SEAP reporter activity” value [3, 5] of the same compound?
Answer: The value was 1.13.

Question: And the “NF-kB SEAP reporter activity” value [3, 6]?
Answer: Its value is 1.15.

Question: With `ClC(Cl)=C(c1ccc(Cl)cc1)c1ccc(Cl)cc1` as the compound, how does the “NF-kB SEAP reporter activity” value [2, 8] read?
Answer: Its value is 1.76.

Question: With `ClC(Cl)=C(c1ccc(Cl)cc1)c1ccc(Cl)cc1` (library stock concentration (final ~1000-fold dilution): 10 mM) as the compound, how does the “NF-kB SEAP reporter activity” value ([3]; agonist: LPS (TLR4) 0.1 ug/mL) read?
Answer: The value was 1.44.

Question: What about the “NF-kB SEAP reporter activity” value [3, 4] of the same compound?
Answer: Its value is 0.68.

Question: And the “NF-kB SEAP reporter activity” value [3, 5]?
Answer: Its value is 0.79.

Question: What about the “NF-kB SEAP reporter activity” value [3, 6] of the same compound?
Answer: The value was 1.14.

Question: Which results are given for `CC1(C)C(=O)N(c2ccc(C#N)c(C(F)(F)F)c2)C(=O)N1CCCCO` (library stock concentration (final ~1000-fold dilution): 10 mM)?
Answer: NF-kB SEAP reporter activity ([3]; agonist: LPS (TLR4) 0.1 ug/mL): 0.98; NF-kB SEAP reporter activity [3, 4]: 0.986; NF-kB SEAP reporter activity [3, 5]: 0.99; NF-kB SEAP reporter activity [3, 6]: 1.1

Question: Which “NF-kB SEAP reporter activity” value [2, 8] does the source give for `CC1(C)C(=O)N(c2ccc(C#N)c(C(F)(F)F)c2)C(=O)N1CCCCO` here?
Answer: Its value is 1.08.

Question: With `Cl.O=C1CCC2(O)C3Cc4ccc(O)c5c4C2(CCN3CC2CC2)C1O5` (configuration not stated) (library stock concentration (final ~1000-fold dilution): 10 mM) as the compound, how does the “NF-kB SEAP reporter activity” value ([3]; agonist: LPS (TLR4) 0.1 ug/mL) read?
Answer: The value was 0.955.

Question: What about the “NF-kB SEAP reporter activity” value [3, 4] of the same compound?
Answer: Its value is 0.919.

Question: And the “NF-kB SEAP reporter activity” value [3, 5]?
Answer: Its value is 0.739.

Question: What about the “NF-kB SEAP reporter activity” value [3, 6] of the same compound?
Answer: The value was 0.982.

Question: Which results are given for `Cl.O=C1CCC2(O)C3Cc4ccc(O)c5c4C2(CCN3CC2CC2)C1O5` (configuration not stated)?
Answer: NF-kB SEAP reporter activity [2, 7]: 0.985; NF-kB SEAP reporter activity [2, 8]: 0.987

Question: What does the source list for `CNC1C(O)C(OC2C(N)CC(N)C(OC3OC(C(C)O)C(O)C(O)C3N)C2O)OCC1(C)O.O=S(=O)(O)O.O=S(=O)(O)O` (configuration not stated) (library stock concentration (final ~1000-fold dilution): 10 mM water)?
Answer: NF-kB SEAP reporter activity ([3]; agonist: LPS (TLR4) 0.1 ug/mL): 1.15; NF-kB SEAP reporter activity [3, 4]: 1.26; NF-kB SEAP reporter activity [3, 5]: 1.15; NF-kB SEAP reporter activity [3, 6]: 1.12

Question: Which “NF-kB SEAP reporter activity” value ([2]; library stock concentration (final ~1000-fold dilution): 10 mM water, cytotoxicity flag (confluency mask): not cytotoxic, agonist: Imiquimod (TLR7) […]) does the source give for `CNC1C(O)C(OC2C(N)CC(N)C(OC3OC(C(C)O)C(O)C(O)C3N)C2O)OCC1(C)O.O=S(=O)(O)O.O=S(=O)(O)O` (configuration not stated) here?
Answer: Its value is 0.947.

Question: What about the “NF-kB SEAP reporter activity” value ([2]; library stock concentration (final ~1000-fold dilution): 10 mM water, cytotoxicity flag (confluency mask): not cytotoxic, agonist: MPLA (TLR4) […]) of the same compound?
Answer: Its value is 1.07.

Question: What does the source list for `O=C(OC1C[N+]2(CCCOc3ccccc3)CCC1CC2)C(O)(c1cccs1)c1cccs1` (configuration not stated)?
Answer: NF-kB SEAP reporter activity [2, 7]: 0.905; NF-kB SEAP reporter activity [2, 8]: 1.06

Question: What does the source list for `O=C(OC1C[N+]2(CCCOc3ccccc3)CCC1CC2)C(O)(c1cccs1)c1cccs1` (configuration not stated) (library stock concentration (final ~1000-fold dilution): 10 mM)?
Answer: NF-kB SEAP reporter activity ([3]; agonist: LPS (TLR4) 0.1 ug/mL): 0.989; NF-kB SEAP reporter activity [3, 4]: 1.04; NF-kB SEAP reporter activity [3, 5]: 1.1; NF-kB SEAP reporter activity [3, 6]: 1.04
